# Assay results taken from the RNAGym collection of RNA variant scans (doi:10.7554/elife.90254).
# The source gives no read counts; variants with many changes may rest on few reads.
# B1: LINE1-mini (parent)
# chain: GGCAGAGCUCAACACAGCGUGGCAAAGUGGCUGUGGCUAGACUGCC
# Variants of: B1
# Test: self-cleavage, relative activity (ratio to wild type); higher = more cleavage; in vitro, sequencing; the parent is a self-cleaving ribozyme
row,Variant,self-cleavage
1,GGCAGAGCGCAACAUAGCGUGCCAAAGUUGCUAUGGCUAGUCUGCC [U9G C15U G22C G29U G33A A41U],0.06
2,GGCAAAGCUCAACACAGCGUGGCAAAGUGGCUGUGGGUUGACUGCC [G5A C37G A39U],0.05
3,GUCAGAGCUCAACACAGCCUGGUAAAGUGGCUGUGGCUAGUCUGCC [G2U G19C C23U A41U],0.03
4,GGUAGAGCUCAACACAGCUUGGCAAAAUGGCUGUGGCUAGACUGCC [C3U G19U G27A],1.07
5,GGCAGAGCUCAACACAGCGUGGCACAGUUGGUGUGGCUAGAGUGCC [A25C G29U C31G C42G],0.01
6,GGCAGAGCUCAACUCAGCGUGGCAAUGUGCCUGUGGCUAGACUUCC [A14U A26U G30C G44U],0.02
7,GGCAGAGGUCAACACACCGUGGCAAAGUGGCUGUGGCUGGCCUGCC [C8G G17C A39G A41C],0.01
8,GGCAGAGCUCAACGCAGCGUGGCAAAGUUUCUGUGGCUAAACUGCC [A14G G29U G30U G40A],0.08
9,GGCAGCGCUCAACACAGCGUGGCAAAUUGGCUGUAGCUAGACUGCC [A6C G27U G35A],0.02
10,GGCACAGCUCAACACAGCGGGGCAAAGCCGCUGUGGCUAGACUGCC [G5C U20G U28C G29C],0.02
11,GUCAGAGCUCAACACAGCGUGGCAAAGUCGCUGUGACUAGACUGCC [G2U G29C G36A],0
12,GGCAAAGCUCAACACAACGUGGCAAAGUCGCUGUGGCUAGACUGCC [G5A G17A G29C],0.35
13,UGCAGAGCUCAACACAGCGUGGCAAAGUGGCUGAGGCUAGAAUGUC [G1U U34A C42A C45U],0.01
14,GGCAGUGCUCAACACAGCAUGGUAAAGUGGCUGUGGCUAUACUGCC [A6U G19A C23U G40U],0.15
15,GGCAGAGCUCAACACAUCGUGGCAAAGUGGAUGUGGCUACACUGCC [G17U C31A G40C],0.15
16,GGCAGAGCUCUACACAGCGUGGCAAAGUGGCUCUGGCUCGACUGCC [A11U G33C A39C],0.01
17,GGCAGAGCUCUACACUGCGUGGCAAAGUGGCAGUGGCUAGACUGCC [A11U A16U U32A],0.25
18,GGCAGAGCUUAGCACAGCGUAUCAAAGUGGCUGUGGGUAGACUGCC [C10U A12G G21A G22U C37G],0.02
19,GGCAGCUAUCUACCGAGCGUGGGAAAGUGGCUGUGGCUAGACUGCC [A6C G7U C8A A11U A14C C15G C23G],0.01

row,Variant,self-cleavage
1,GGCAGAGCUCAACACAGCGUGGCAAAGUGGAUGUGGUUACACUGCC [C31A C37U G40C],0.04
2,GGCACAGCCCAACAAAGCGUGGCAAACUGGCUGUGGCAAAACUGCC [G5C U9C C15A G27C U38A G40A],0.02
3,GGCAGAGCAGAACACAGCGUGGCAAAGUGGCUGUGGCUAGACUGAC [U9A C10G C45A],0.03
4,GGAAGAGCUCAUCACAGAGUGGCAAACUGGCUGUGGAUAGACUGCC [C3A A12U C18A G27C C37A],0.08
5,GGCAGAGCUCAACACUGCCUGGCAAAGUGGCUUUGGCUAGACUGCC [A16U G19C G33U],0.01
6,GGCAGAGCUCAACACACCGUGGCCAAGUGGCAGUGGCUAGACUGCC [G17C A24C U32A],0.03
7,GGGAGCGCUCAACACAGCGUGGCAAAGUGGCUGUGGGUAGACUGCC [C3G A6C C37G],0.06
8,GGCAGAGCUCUACACAGCGUGGCAAAUUGGCUGUGGCUACACUGGC [A11U G27U G40C C45G],0.02
9,GGCAGAGCGCAACAUAGCGUGGCAAAGUGGCUGUGGUUAGACUGAC [U9G C15U C37U C45A],0.12
10,GGCAGAUCUCAACACUGCGUGGCAAAGUGGCUGUAGCUAGACUGCC [G7U A16U G35A],0.01
11,GGCAGAGCUCACUACAGGUUGGCAAUAUGGCUGUGGCUAGACUGCC [A12C C13U C18G G19U A26U G27A],0.14
12,GGCAGAGCUCAACCCAGAGUGGCAAAUUGGCUGUGGAUAGACUGCC [A14C C18A G27U C37A],0.03
13,UGCAGAGCUAAGCACAGCGUGGCAAAGUGGCUGUGGCUAGACUGCC [G1U C10A A12G],0
14,GGCAGAGCUCUACACAGCGUGGCCAAGUGGCUGUGACUAGACUGCC [A11U A24C G36A],0.01
15,GCAAGAGUUGAACACAGCUUGGCAAAGUGGCUGUGGCCAGACUGCC [G2C C3A C8U C10G G19U U38C],0.01
16,CGCAGAGCUCUACACAGCGUGGCAAAGUGGCUGUGACUAGUCUGCC [G1C A11U G36A A41U],0
17,GGCAGAGCUCAACACACCGUGGCAAAGCGGCUGUGGCUAAACUGCC [G17C U28C G40A],0.05
18,GGCUGAGCUCAACACAGCUUGGCAAAGUAGCUGUGGCAAGAUUGCC [A4U G19U G29A U38A C42U],0.05
19,GGCAUACCUCAACACAGCGUGUCAAAGUGGCUGUUGCUAGACUGCC [G5U G7C G22U G35U],0.14

row,Variant,self-cleavage
1,UGCAGAGCUAAACACAGUGUGGCAAACUUGCUGUGGCUAGACUACC [G1U C10A C18U G27C G29U G44A],0.01
2,GCCUGAGCUCUACACAGCGUGGCAAAGUGGGUGUGGCUAGACUGCC [G2C A4U A11U C31G],0.02
3,GGCAGAGCUCAACACAGCGUGAUAAAGUGGCUGUUGCUAGACUGCC [G22A C23U G35U],1.91
4,GGCAGAGCUCAACAAAGCUUCGCAAAGUGGCUGUGGUUAUACUGCC [C15A G19U G21C C37U G40U],0.05
5,GGCAGCGGUCAACACAGCGUGGCAAAGUGGCUAUGGCAAGACUGCC [A6C C8G G33A U38A],0.02
6,GGCAGAGCUCAAGACAGCGUGGCAAAGUGGUUGUGAAUAGCCUGCG [C13G C31U G36A C37A A41C C46G],0
7,UGGAGAGCUCAACACAGCGUGGCCAAGUGGCUGUGGAUAUACUGCU [G1U C3G A24C C37A G40U C46U],0.07
8,UGCAGAGCUGAACACAGCGUGCCAAAGUGGCUGUGGCUAGACUGCC [G1U C10G G22C],0.01
9,GGCCGAGCUCAACACAGCGUGGCAAAAUGGCUAUGGCUAGACUGCC [A4C G27A G33A],0.19
10,GGCAGAGCUUAACAAAGCGUGGCAAAGUGGCUGUGGCUAGUCUGCC [C10U C15A A41U],0.04
11,GGCAGAGCUCAACAUAUCGUCGCAAAGAGGCUGUGGCUAGACUGCC [C15U G17U G21C U28A],0.43
12,GGCAGAGCUCAACACAUCGUGGCCAAGGGGCUGUGGCUAGAUUGCC [G17U A24C U28G C42U],0.03
13,GGCAGAGCUCCACAAAGCGUGGCAAAGUGGCUGUGGCUAUACUGCC [A11C C15A G40U],0
14,GGCAGAGCACAAGACAGCGUGGCAAAGUGGCUGUGGCUAGAAUGCC [U9A C13G C42A],0.43
15,GACAGAGCUCAACACAGCGUGGCAAAUUGGCUGUGGCAAGACUGCC [G2A G27U U38A],0.19
16,GGCAGAUCUCAACACAGCGUGGCAAAGUGGCUGUUGCUAGACUUCC [G7U G35U G44U],0.64
17,GGCAGAGCUCAACACAGCGUGGCAAUUUGGCUGUGGCUAUACUGCU [A26U G27U G40U C46U],0.08
18,GGCAGAGCCCAACGCAGCGUGGCAAAGUGGCUGUGGCUAGACUGAC [U9C A14G C45A],0.05
